Measurements as given in PubChem BioAssay AID1963576 (National Center for Advancing Translational Sciences (NCATS), 2024).
Out of some 46,000 compounds screened, about 60 (0.1%) were called active. Inconclusive results (about 3%) are left out. Calls come from the whole dose curve; as a rule, active = well fitted inhibition curve with a large enough effect; inconclusive = small, poorly fitted or top-dose-only effect; inactive = no such curve, though single readings can be large or run the other way. The list shows a part of the results.

Test: Primary qHTS assay for Inhibitors of ovarian cancer metastasis using an organotypic tumor microenvironment (TME) model.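 For activity change, negative = inhibition: plate controls were DMSO wells for no effect and tomatine positive control wells for full effect.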 Note: nearly all actives have a fitted effect of over 65% in size.
Settings: SKOV3ip1-GFP adhesion/invasion on 3D omental model, fluorescence; series mostly up to 45.8 µM; activity change, negative = inhibition: at the top concentration
Outline: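 Adhesion/invasion was scored as fixed GFP-labeled SKOV3ip1 cell counts (488/509 nm), normalized to DMSO and tomatine controls. Cancer cells in serum-free medium, with four compound doses (0.36-46 umol/L), sat 2 hr at RT then 16 hr at 37 C on a 48 hr fibroblast/mesothelial/ECM culture.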

Activity change, negative = inhibition, inactive:
O=C(Cn1ccc2cc(S(=O)(=O)N3CCCCC3)ccc21)NCCc1ccccc1Cl -4.12%, CCCCN(C)C(=O)c1cn(C)c2ccc(S(=O)(=O)N3CCC(C)CC3)cc2c1=O 8.49%, CCc1ccc(NC(=O)CSC2=Nc3ccccc3C3=NC(CCC(=O)NCc4ccccc4)C(=O)N23)cc1 (centres undefined) 8.43%, Cc1ccccc1NC(=O)Cn1cc(C(=O)c2cccs2)c2ccccc21 -15.9%, O=c1[nH]cnc2[nH]ncc12 8.12%, CC1CCN(S(=O)(=O)c2ccc3c(c2)CCN3)CC1 -1.13%, CC1=C(C(=O)Nc2cccc(Cl)c2C)C2(CCCCCC2)OC1=O -27.6%, COc1ccccc1C(=O)Nc1ccccc1OCc1cc(=O)n2ccccc2n1 -18.3%, Cc1ccc2oc(C(=O)Nc3cccc(Cl)c3)cc(=O)c2c1 1.95%, O=C(Cc1ccccc1)Nc1sc2c(c1C(=O)Nc1ccc(Br)cc1)CCC2 -5.38%, Cc1ccc(CCNC(=O)CS(=O)Cc2nc(-c3ccccc3Cl)oc2C)cc1 (centres undefined) 2.5%, O=C(NCCc1ccccc1)c1nc(-c2ccc(Cl)cc2)n2c1CCCCC2 0.402%, COc1cccc(N2CC(NC(=O)c3ccc(S(=O)(=O)N4CCOCC4)cc3)CC2=O)c1 (centres undefined) 1.74%, O=C(Nc1ccc(F)cc1)c1csc2c1CCCCC2 15.6%, Cc1ccccc1NC(=O)CSc1nc2nccnc2c(=O)n1CCc1c[nH]c2ccccc12 -15.1%, COc1ccc(S(=O)(=O)c2cnc3ccc(Cl)cc3c2N2CCCCC2C)cc1 (centres undefined) -4.66%, Cc1cc(C)cc(OCC(=O)Nc2c(C)ccc3nsnc23)c1 0.396%, CC1CCCc2sc3nc(SCC(=O)c4ccc(Br)cc4)nc(N)c3c21 (centres undefined) 2.25%, Cc1cccc(NC(=O)CSc2nccn2Cc2ccc(F)cc2)c1C 1.23%, Cc1cccc(N2CCN(C(=O)Cn3nc(C)n4cccc4c3=O)CC2C)c1 (centres undefined) 3.4%, CCOc1ccc(N(CC)S(=O)(=O)c2cc(Br)cc3c2N(C(C)=O)C(C)C3)cc1 (centres undefined) 18.5%, COc1ccc(NC(=O)CSc2nc(-c3ccco3)cc(C(F)(F)F)n2)cc1OC -11%, COc1ccccc1NC(=O)CSC1=Nc2ccccc2C2=NC(CC(=O)NCc3ccco3)C(=O)N12 (centres undefined) -7.61%, CC(=O)c1cccc(NC(=O)c2oc3c(c2C)-c2nn(Cc4ccc(Cl)cc4)cc2CC3)c1 -18%, COc1ccc(S(=O)(=O)N2CCCN(CC(=O)Nc3ccc(NC(C)=O)cc3)CC2)cc1 2.01%, COCc1nc2ccccc2n1CCOc1cccc(C)c1 -10.7%, O=C(CN1N=C(c2ccc(Cl)cc2)CCC1=O)NCCc1ccc(Cl)cc1 -1.93%, Cc1cc(O)c2c(c1)C(=O)c1cc(O)cc(O)c1C2=O -13.1%, CCOc1ccccc1CN1CCN(S(=O)(=O)c2ccccc2)CC1 9.72%, Cc1nc2c(C(=O)NCCCN(CC(C)C)CC(C)C)cnn2c(C)c1Cc1c(F)cccc1Cl 4.76%, CCCc1nn2c(=O)cc(COC(=O)c3ccccc3NC(=O)COc3ccccc3F)nc2s1 3.29%, CCOc1ccc(CNC(=O)C2Cc3ccccc3N2C(=O)CC)cc1OC (centres undefined) -2.3%, COc1ccc(NC(=O)c2oc3ccc(S(=O)(=O)N4CCCCC4)cc3c2C)cc1 0.192%, COc1ccc(OC)c(CNC(=O)c2ccc(Sc3ccc(C)cc3)c(N)c2)c1 -55.8%, Cc1ccc(NC(=O)CN2C(=O)CCc3cc(S(=O)(=O)N4CCOCC4)ccc32)cc1F 43.4%, CCc1ccc(-n2nc(C)c3c(C)cc(=O)n(Cc4nc(-c5ccccc5)oc4C)c32)cc1 1.97%, CCOc1ccccc1NC(=O)N1CC(CC)Oc2ccccc21 (centres undefined) -1.6%, O=C(NCc1ccccc1Cl)c1cc2c(s1)-c1ccc(Cl)cc1SC2 -4.03%, COc1cccc(CNCCNC(=O)c2nonc2N)c1 -27.2%, COC(=O)c1ccc2c(C(=Nc3ccc(N(C)C(=O)CN4CCN(C)CC4)cc3)c3ccccc3)c(O)[nH]c2c1 -3.3%, COc1cccc(-n2c(=O)c3c(C)c(C)sc3n(CC(=O)NCc3ccc(C)cc3)c2=O)c1 9.83%, CC(C)(C)C(=O)Nc1cccc(-c2cn3cccnc3n2)c1 -14.9%, CCOc1ccc(CCNC(=O)c2cc3c(=O)oc4ccc(C)cc4c3s2)cc1OCC 42.6%, Cc1ccc(Cc2c(C)nc3nc(SCC(=O)NC4CCC(C)CC4)nn3c2C)cc1 (centres undefined) 1.23%, CCOC(=O)c1ccc2c(c1)N(CC(=O)N(C)c1ccccc1)C(=O)c1ccccc1S2 -1.02%, COc1ccccc1NC(=O)c1cc(=O)c2ccc(C)c(C)c2o1 -8.54%, CC1CCCCN1C(=O)CSc1n[nH]c(-c2ccccc2Cl)n1 (centres undefined) -4.68%, O=C(CC1N=C2c3ccccc3N=C(SCc3cccc(Cl)c3)N2C1=O)NCc1ccc2c(c1)OCO2 (centres undefined) -0.112%, Cc1nn(CCC(=O)Nc2cc(F)ccc2F)c(=O)c2nn(-c3ccccc3)c(C)c12 0.475%, N#C/C(=C\c1ccc(-c2ccc(C(=O)O)cc2)o1)C(=O)Nc1ccccc1C(=O)O -2.77%, O=C(OCc1cc(=O)n2nc(-c3cccs3)sc2n1)c1ccc(Cl)cc1 0.641%, COc1ccc(-c2nc3ccc(NS(=O)(=O)c4ccc(C)cc4)cc3o2)cc1 -7.79%, O=c1[nH]cnc2c1ncn2[C@H]1CC[C@@H](CO)O1 2.91%, CC(C)OCCCNC(=O)c1ccc(CSc2nc3cccnc3n2Cc2ccccc2)cc1 7.56%, CCN(C(=O)c1nn(-c2ccc(OC)c(Cl)c2)c(=O)c2c1c1ccccc1n2C)c1cccc(C(F)(F)F)c1 -0.896%, O=C(CN1C(=O)COc2ccc(Cl)cc21)Nc1ccc(F)cc1 3.81%, Cc1nc2nc(CNC(=O)OC(C)(C)C)nn2c(C)c1CCC(=O)NCc1ccc(F)cc1 1.47%, CCC1CCC(C(=O)NC(C(=O)Nc2cccc(OC)c2)C(C)C)CC1 (centres undefined) 5.03%, Cc1cc(CN2CCN(c3ccccc3F)CC2)cs1 1.32%, Cc1cccc(NC(=O)CSc2nnc3[nH]c(=O)cc(-c4ccccc4)n23)c1C 0.919%, CCOc1ccc(CNCc2c(C(=O)O)c(C)n(Cc3cccc(OC)c3)c2C)cc1OC 0.954%, Cc1ccc(Cn2c(C(=O)NCc3ccccc3Cl)cc3sccc32)cc1 -0.308%, Cc1nc2sccn2c(=O)c1S(=O)(=O)Nc1ccc(N2CCOCC2)c(Cl)c1 -4.87%, COC(=O)c1cc2sc(C)cc2n1Cc1cccc(OC)c1 -15.1%, COc1ccc(C2Nc3ccccc3-c3cc(C)nn32)cc1OC (centres undefined) -9.97%, CCOc1cc(C(=O)Nc2cc3c(cc2N2CCOCC2)n(C)c(=O)n3C)cc(OCC)c1OCC -9.19%, O=c1cc(-c2ccccc2)nc(SCc2nc(-c3ccccc3Cl)no2)[nH]1 -2.45%, Cc1cccn2c(=O)c(C(=O)NCc3ccc(F)cc3)c(O)nc12 1.39%, CCOC(=O)c1c(C)[nH]c(C)c1S(=O)(=O)N1CCCC(C(=O)NCc2cccc(C)c2)C1 (centres undefined) 2.63%, CCOC(=O)c1c(-c2ccc(OC)cc2)oc2ccc(OCc3ccccc3C)cc12 9.68%, CNc1ncnc2c1cnn2-c1ccc(C)c(C)c1 7.43%, Cc1ccccc1CNC(=O)CCCn1c(=O)c2cccn2c2cccnc21 -18.1%, Fc1ccc([C@@H]2CCNC[C@H]2COc2ccc3c(c2)OCO3)cc1 0.698%

outcome, inactive:
O=C(c1cnn(-c2ccc(F)cc2)c1-n1cccc1)N1CCN(c2ccc(F)cc2)CC1, O=S(=O)(NCCS(=O)(=O)N1CCN(c2ccccc2)CC1)c1ccc(Br)cc1, COc1ccccc1Nc1sc(C(=O)c2ccc(C)cc2C)c(N)c1S(=O)(=O)c1ccccc1, CCc1ccc(S(=O)(=O)c2nnn3c2nc(Nc2cc(OC)ccc2OC)c2sccc23)cc1, COc1ccc(CNc2nc3c(-c4ccccc4)nnn3c3ccccc23)cc1, CCCCN(C)CCCNC(=O)Cn1ncc2c3ccccc3n(Cc3ccccc3)c2c1=O, CN(Cc1ccccc1)S(=O)(=O)c1nnc(NC(=O)c2cccc(Cl)c2)s1, Cc1ccc(C(=O)Nc2cc3c(cc2C)n(C)c(=O)c(=O)n3C)cc1, CCCOC(=O)c1c(NC(=O)c2nc3ncccn3n2)sc(C(N)=O)c1C, Cc1cccc(CNC(=O)CCn2c(=O)c3cccn3c3ccc(F)cc32)c1, Cc1ccc(C(=O)CSc2nc(-c3ccccc3)nc3c2CCCC3)cc1, CCOC(=O)CSc1nc(-c2ccc(C)cc2C)cc(-c2ccccc2)c1C#N, Cc1cccc(NS(=O)(=O)c2c(C)nc3sccn3c2=O)c1C, CCSc1nc2c([nH]c3ccccc32)c(=O)n1CC, O=C(Cn1c(=O)nc(-c2ccccc2)c2ccccc21)Nc1cccc(C(F)(F)F)c1, Cc1cccc(CSc2ncc(Cl)c(C(=O)Nc3sc4c(c3C(N)=O)CCCC4)n2)c1, CC(=O)N1CCc2c(sc(NC(=O)CSc3ccccc3)c2-c2nc3ccccc3s2)C1, COc1ccc(-c2cn(-c3ccc(C)cc3)c(S(=O)(=O)CC(=O)Nc3ccc(F)cc3)n2)cc1, COc1cc(Nc2nc(SCC(=O)c3ccc(Br)cc3)nc3ccccc23)cc(OC)c1, O=C(CCC(=O)N1CC2CCCN2c2ccccc21)NCc1ccc(Cl)cc1 (centres undefined), CCC1=C(c2ccc(C)cc2)S(=O)(=O)N=C1N1CCC(C(=O)Nc2ccccc2F)CC1, Cc1ccc(NC(=O)Cn2ncn3c(cc4ccccc43)c2=O)cc1F, COc1ccc(CNC(=O)CCCN2C(=O)CSc3c2c(C)nn3-c2ccccc2)cc1, CCN(CC)CCNC(=O)C1CCN(c2nn3cc(-c4ccc(F)cc4)nc3s2)CC1, Oc1ccccc1-c1nc(/C=C/c2ccccc2Cl)nn1-c1ccccc1, COc1cc(NC(=O)c2cccc3c2C(=O)N(C2CCCCC2)C3)cc(OC)c1OC
